The values below come from the supplement of paper PMC9446081.

Among all 39,000 compounds or so, about 220 (0.56%) showed activity. The list shows a part of the results.
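Further: static incubation at 37 °C against the wild-type strain, values averaged over two biological replicates.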

This assay concerns Escherichia coli K-12 BW25113. Briefly: relative growth (OD600 normalised to plate interquartile mean) (fraction); higher = less growth inhibition, active = 0.2 or less. To be noted: 50 µM; LB; incubation time: overnight (16-24 h).
Take `C[C@@H]1CCCCO[C@@H](CN(C)C(=O)Nc2cccc3ccccc23)[C@H](C)CN([C@@H](C)CO)C(=O)c2cc(NS(=O)(=O)c3ccccc3)ccc2O1`: the relative growth was inactive: 1.06.

Consider `CN1C(=O)CO[C@H]2CN(C(=O)NCc3cccnc3)C[C@@H]21`, for which the relative growth was inactive: 1.03. On to `Nc1ccc(S(=O)(=O)Nc2ccc(Cl)nn2)cc1`, for which the relative growth was inactive: 1.03. As for `NCCCCCCNC(=O)[C@@H]1C[C@@H]2C(=O)N[C@@H](CCCCN)C(=O)N2[C@@H]1c1ccc(O)cc1`, the relative growth is inactive: 0.828. For `COCCNC(=O)C[C@@H]1C[C@H]2c3cc(NC(=O)Nc4ccc(C(F)(F)F)cc4)ccc3O[C@H]2[C@@H](CO)O1` the value was inactive: 1.01. For `C[C@@H]1CN([C@H](C)CO)C(=O)c2cc(NC(=O)Cc3ccccc3)ccc2O[C@@H](C)CCCCO[C@@H]1CN(C)Cc1ccc2c(c1)OCO2` the value was inactive: 1.01; for `C[C@@H]1CN([C@@H](C)CO)C(=O)c2cc(/C=C/c3ccccc3)cnc2O[C@H]1CN(C)C(=O)CN1CCOCC1`, inactive: 1.04; for `O=C(C[C@@H]1CC[C@@H]2[C@H](COC[C@@H](O)CN2C(=O)c2ccncc2)O1)NC1CCC1`, inactive: 0.999. To `Cc1ccc(S(=O)(=O)Nc2cccc3c2O[C@@H](CN(C)S(=O)(=O)c2c(C)noc2C)[C@@H](C)CN([C@H](C)CO)C3=O)cc1` belongs inactive: 1.01; to `COc1ccc(NC(=O)Nc2ccc3c(c2)C(=O)N([C@H](C)CO)C[C@H](C)[C@@H](CN(C)C(=O)NC2CCCCC2)OCCCC[C@H](C)O3)cc1`, inactive: 1.01. For the molecule `COc1ccc(S(=O)(=O)N(C)C[C@H]2Oc3c(NC(=O)c4ccncc4)cccc3C(=O)N([C@@H](C)CO)C[C@@H]2C)cc1`, the relative growth is inactive: 1. To `COc1ccc(CN(C)C[C@H]2OCCCC[C@H](C)Oc3ccc(NC(=O)CCC(F)(F)F)cc3C(=O)N([C@@H](C)CO)C[C@@H]2C)cc1` belongs inactive: 1.04. For `NC1(C#Cc2cncc(C(=O)N3CCOCC3)c2)CCCCC1` the value was inactive: 0.914.

Consider `NC(=O)NCC#Cc1ccc2c(c1)[C@]1(C(=O)N2)[C@H](C(=O)N2CCN(c3ncccn3)CC2)[C@H]2C(=O)O[C@H](c3ccccc3)[C@H](c3ccccc3)N2[C@@H]1c1ccccc1OCCO`, for which the relative growth is inactive: 1.07.

In the case of `Nc1ncnc2c1nc(Br)n2[C@@H]1O[C@@H]2COP(=O)(O)O[C@H]2[C@H]1O`, the relative growth was inactive: 0.844.

As to `C[C@H](CO)N1C[C@H](C)[C@@H](CN(C)Cc2ccc(Oc3ccccc3)cc2)Oc2ccc(NC(=O)C3CCCCC3)cc2C1=O`, the relative growth is inactive: 1.01. For `Cc1noc(C)c1S(=O)(=O)N(C)C[C@H]1Oc2ccc(NC(=O)C3CCCCC3)cc2CC(=O)N([C@@H](C)CO)C[C@H]1C` the value was inactive: 0.994.

With `C[C@@H]1CN([C@H](C)CO)S(=O)(=O)c2ccc(-c3cccnc3)cc2O[C@@H]1CN(C)CC1CCOCC1`, the relative growth was inactive: 1.03. To `Cc1cc[nH]c(=O)c1` belongs inactive: 0.972; to `CN(C)CCN1CCN(C)C2(CCN(C(=O)c3ccn[nH]3)CC2)C1=O`, inactive: 0.991; to `O=C(C[C@H]1C[C@@H]2c3cc(NS(=O)(=O)c4ccccc4)ccc3O[C@@H]2[C@@H](CO)O1)NC1CCCCC1`, inactive: 0.991. To `CO[C@H]1CN(C)C(=O)c2ccc(NS(=O)(=O)CC(F)(F)F)cc2OC[C@@H](C)N(Cc2nccs2)C[C@H]1C` belongs inactive: 0.992; to `O=C(C[C@H]1C=C[C@H](NS(=O)(=O)c2ccccc2)[C@H](CO)O1)NCc1ccncn1`, inactive: 0.981; to `COC(=O)CC1C(C)(C)C(OC(C)=O)C2CC3C4CC(=O)OC(c5ccoc5)C4(C)CCC3C1(C)C2=O` (stereo not given), inactive: 0.979.

As to `CN(C)S(=O)(=O)Nc1cccc(N)c1`, the relative growth was inactive: 1.03. As to `CC(C)NC(=O)N(C)C[C@H]1OCCCC[C@H](C)Oc2ccc(NC(=O)Nc3ccccc3)cc2C(=O)N([C@@H](C)CO)C[C@H]1C`, the relative growth is inactive: 1.

As to `CO[C@@H]1CN(C)C(=O)c2ccc(NS(C)(=O)=O)cc2OC[C@H](C)N(C(=O)C2CCOCC2)C[C@H]1C`, the relative growth was inactive: 0.994. To `Cc1ccc(S(=O)(=O)N(C)C[C@H]2OCCCC[C@H](C)Oc3ccc(NC(=O)Nc4cccc5ccccc45)cc3C(=O)N([C@H](C)CO)C[C@@H]2C)cc1` belongs inactive: 1.05; to `C[C@@H]1CN([C@H](C)CO)C(=O)c2cccc(NC(=O)c3cnccn3)c2O[C@H]1CN(C)Cc1ccc2c(c1)OCO2`, inactive: 0.989; to `C[C@H](CO)N1C[C@H](C)[C@H](CN(C)C(=O)NC2CCCCC2)Oc2ccc(NC(=O)Nc3cccc4ccccc34)cc2C1=O`, inactive: 1.01. For `C[C@@H]1CN([C@@H](C)CO)C(=O)c2cccc(NC(=O)Nc3ccc(C(F)(F)F)cc3)c2O[C@@H]1CN(C)S(=O)(=O)c1ccc(Cl)cc1`, the relative growth is inactive: 0.959. To `CCCNC(=O)c1cc2c(c(-c3cccc(-c4cc5ccccc5o4)c3)n1)[C@H](CCO)N(C(=O)NC(C)C)C2` belongs inactive: 0.99. With `C[C@H]1CN([C@@H](C)CO)S(=O)(=O)c2ccc(C#Cc3cccc(F)c3)cc2O[C@@H]1CN(C)C(=O)CN1CCOCC1`, the relative growth is inactive: 1.02.

With `C/C=C/c1ccc([C@@H]2[C@H](CO)N(S(=O)(=O)Cc3ccccc3)C23CN(C(=O)C2CCOCC2)C3)cc1`, the relative growth is inactive: 1.03. To `C[C@@H]1CN([C@@H](C)CO)C(=O)Cc2cc(NC(=O)Cc3ccccc3)ccc2O[C@@H]1CN(C)C(=O)Nc1cccc2ccccc12` belongs inactive: 1.04; to `C[C@@H]1CN([C@H](C)CO)C(=O)c2cc(-c3ccc(F)cc3)cnc2O[C@@H]1CN(C)C(=O)Cc1ccccn1`, inactive: 0.989. To `CN1C(=O)c2cc(NC(=O)c3cccs3)ccc2OC[C@H]2O[C@@H](CC(=O)NCC(F)(F)F)CC[C@@H]21` belongs inactive: 1.04; to `Cc1noc(C)c1NC(=O)Nc1ccc2c(c1)CC(=O)N([C@@H](C)CO)C[C@@H](C)[C@H](CN(C)CC1CC1)O2`, inactive: 0.985; to `C[C@H]1CN([C@@H](C)CO)C(=O)CCCn2cc(nn2)CO[C@@H]1CN(C)C(=O)Nc1cccc2ccccc12`, inactive: 0.978. For `C[C@H]1CCCCO[C@H](CN(C)C(=O)c2ccncc2)[C@@H](C)CN([C@@H](C)CO)C(=O)c2cc(NS(=O)(=O)c3cn(C)cn3)ccc2O1` the value was inactive: 1.01. With `COc1ccc(S(=O)(=O)N(C)C[C@@H]2OCCCC[C@H](C)Oc3ccc(NS(=O)(=O)c4cn(C)cn4)cc3C(=O)N([C@@H](C)CO)C[C@@H]2C)cc1`, the relative growth was inactive: 0.91.

Consider `Cc1noc(C)c1S(=O)(=O)Nc1ccc2c(c1)C(=O)N([C@@H](C)CO)C[C@@H](C)[C@H](CN(C)Cc1ccccc1)O2`, for which the relative growth is inactive: 0.988.

For the molecule `COc1ccc(NC(=O)Nc2cccc3c2O[C@H](CN(C)Cc2ccc(C(=O)Nc4ccccc4N)cc2)[C@@H](C)CN([C@H](C)CO)C3=O)cc1`, the relative growth is inactive: 0.975. For `Cc1noc(C)c1NC(=O)Nc1ccc2c(c1)C(=O)N([C@@H](C)CO)C[C@H](C)[C@@H](CN(C)Cc1ccc(Cl)c(Cl)c1)OCCCC[C@@H](C)O2` the value was inactive: 1.04; for `Cc1noc(C)c1S(=O)(=O)Nc1cccc2c1O[C@H](CN(C)C(=O)NC1CCCCC1)[C@H](C)CN([C@H](C)CO)C2=O`, inactive: 0.887; for `C[C@H]1CN([C@@H](C)CO)C(=O)c2cc(NC(=O)Cn3cnnn3)ccc2O[C@H]1CN(C)C(=O)Nc1ccccc1`, inactive: 1.02. On to `C[C@@H]1CN([C@@H](C)CO)C(=O)Cc2cc(NS(=O)(=O)c3ccc(F)cc3)ccc2O[C@@H]1CN(C)Cc1ccc(Cl)c(Cl)c1`, for which the relative growth is inactive: 1. Take `COc1ccc(NC(=O)Nc2ccc3c(c2)C(=O)N([C@H](C)CO)C[C@H](C)[C@@H](CN(C)C(=O)Nc2ccc4c(c2)OCO4)OCCCC[C@@H](C)O3)cc1`: the relative growth was inactive: 1.03. With `Cc1ccc(S(=O)(=O)Nc2ccc3c(c2)C(=O)N([C@@H](C)CO)C[C@H](C)[C@H](CN(C)S(=O)(=O)c2ccc(F)cc2)OCCCC[C@@H](C)O3)cc1`, the relative growth was inactive: 1.02.

As to `CCCCCCCCCCCCCCCCCC(=O)O`, the relative growth was inactive: 1.01.

As to `C[C@@H]1CN([C@@H](C)CO)S(=O)(=O)c2ccc(-c3cccnc3)cc2O[C@@H]1CN(C)C(=O)NC1CCCCC1`, the relative growth is inactive: 1. To `COCC#Cc1ccc2c(c1)O[C@H](CN(C)C(=O)CN(C)C)[C@H](C)CN([C@@H](C)CO)S2(=O)=O` belongs inactive: 0.966; to `C[C@H]1CN([C@@H](C)CO)C(=O)c2cccc(NC(=O)c3ccc(-c4nccs4)cc3)c2O[C@H]1CN(C)S(C)(=O)=O`, inactive: 0.981; to `C[C@@H]1CN([C@@H](C)CO)C(=O)Cc2cc(NC(=O)Cc3ccccc3)ccc2O[C@@H]1CN(C)S(=O)(=O)c1ccc(F)cc1`, inactive: 0.993. To `COc1ccc(NC(=O)Nc2ccc3c(c2)C(=O)N([C@H](C)CO)C[C@H](C)[C@H](CN(C)C(=O)Nc2c(C)noc2C)OCCCC[C@@H](C)O3)cc1` belongs inactive: 1; to `C[C@H](CO)N1C[C@H](C)[C@H](CN(C)S(C)(=O)=O)Oc2ccc(NC(=O)NC3CCCCC3)cc2C1=O`, inactive: 1.06.

Turning to `O=C(C[C@@H]1CC[C@@H]2[C@H](COC[C@@H](O)CN2C(=O)Nc2ccc(Cl)cc2)O1)NCCc1ccncc1`, the relative growth is inactive: 0.944.

Take `Oc1ccc(C=Cc2cc(O)cc(O)c2)cc1`: the relative growth is inactive: 1.04. Take `Cc1ccc(S[C@]2(C(=O)NCc3ccccc3)CC(=O)N(Cc3cc(C(F)(F)F)cc(C(F)(F)F)c3)[C@@H]2c2ccc(CO)cc2)cc1`: the relative growth was inactive: 1.01.

On to `C[C@@H]1CN([C@@H](C)CO)C(=O)c2cccc(NC(=O)NC3CCCCC3)c2O[C@@H]1CN(C)C(=O)Nc1ccc(C(F)(F)F)cc1`, for which the relative growth was inactive: 0.975.
